Test results published in the supplement of paper PMC4166925.
± gives the standard deviation of the averaged measurements. The full ranking holds about 33,000 sequences; the median of “E-score (dimensionless, -0.5 to 0.5)” is about -0.046, and the highest 2% start at about 0.36. This is one part of the list.

test system: T1, SpTbr T-box DNA-binding domain (GST fusion); experiment: PBM E-score of 8-mer (E-score (dimensionless, -0.5 to 0.5)); Tbr is Tbrain of the sea star Patiria miniata (Pm) or the sea urchin Strongylocentrotus purpuratus (Sp); higher = stronger binding preference; most listed sequences are background and not binding sites; details: the construct has about 5 more residues each side
T1 sequence: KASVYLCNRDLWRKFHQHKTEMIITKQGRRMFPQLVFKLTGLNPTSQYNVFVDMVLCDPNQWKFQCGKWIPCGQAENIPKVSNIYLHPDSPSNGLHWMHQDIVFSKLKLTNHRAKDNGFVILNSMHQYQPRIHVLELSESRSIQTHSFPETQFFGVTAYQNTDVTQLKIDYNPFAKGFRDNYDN
Method in brief: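 Using the Universal PBM Analysis Suite, every ungapped 8-mer received an enrichment E-score averaged over duplicate arrays. Probe intensities came from double-stranded Universal Agilent oligonucleotide arrays incubated with 200 nM GST-fused Tbr T-box DNA-binding domain in PBS (pH 7.5). That protein was expressed in BL21 E. coli at 20 °C and purified by glutathione affinity chromatography.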

Going from CTGTGCGA to CGTGAGTC, the “PBM E-score of 8-mer” value falls from 0.27 ± 0.022 to 0.13 ± 0.048.

Compared with GCTACGGA, CAACACGC is higher in “PBM E-score of 8-mer” value: -0.1717 ± 0.00057 for the first, 0.203 ± 0.0098 for the second.

CGCCCATC and AGACTTCG are within error of each other in “PBM E-score of 8-mer” value: -0.0428 ± 0.069 for the first, -0.0905 ± 0.069 for the second.

Going from ACGCCTAA to ACCCCCAA, the “PBM E-score of 8-mer” value falls from 0.249 ± 0.0043 to 0.126 ± 0.023.

Going from AAACCTCC to AGTTCTGC, the “PBM E-score of 8-mer” value falls from -0.246 ± 0.0086 to -0.323 ± 0.021.

ACTAATAA and CGCGTACG are within error of each other in “PBM E-score of 8-mer” value: -0.0725 ± 0.085 for the first, 0.0774 ± 0.069 for the second.

CGATCTAG and ACTCCGAT are within error of each other in “PBM E-score of 8-mer” value: -0.0149 ± 0.058 for the first, -0.0758 ± 0.0044 for the second.

ATGGGCTC and AGACCTTG are within error of each other in “PBM E-score of 8-mer” value: -0.162 ± 0.028 for the first, -0.19 ± 0.022 for the second.

AGGTTGAG and TGTCCGAA are within error of each other in “PBM E-score of 8-mer” value: -0.09 ± 0.024 for the first, -0.0937 ± 0.021 for the second.

First: ATAATGAC
Second: CTGCGCCA
The “PBM E-score of 8-mer” value of the first is lower: -0.00677 ± 0.0048 for the first, 0.117 ± 0.055 for the second.

AACTTCGC and ACAGGAGC are within error of each other in “PBM E-score of 8-mer” value: 0.0929 ± 0.044 for the first, 0.0435 ± 0.11 for the second.

First: AACCTCTA
Second: CTGTTTTC
The “PBM E-score of 8-mer” value of the first is lower: -0.187 ± 0.065 for the first, 0.0255 ± 0.037 for the second.

Going from GTGCGGTA to CCAGCAGG, the “PBM E-score of 8-mer” value falls from 0.129 ± 0.033 to -0.149 ± 0.021.

First: CTTACTCA
Second: AGCTCAAT
The “PBM E-score of 8-mer” value of the first is higher: -0.0364 ± 0.05 for the first, -0.176 ± 0.04 for the second.

AGTAGAGC and AACTGGAG are within error of each other in “PBM E-score of 8-mer” value: -0.0394 ± 0.027 for the first, -0.0594 ± 0.019 for the second.

Going from AGGTCTGC to ATAGAAAC, the “PBM E-score of 8-mer” value rises from -0.314 ± 0.03 to -0.238 ± 0.0062.

AACGTATC and CCGGTACC are within error of each other in “PBM E-score of 8-mer” value: -0.117 ± 0.03 for the first, -0.145 ± 0.0012 for the second.

GTAAGGAC and GTAACGGA are within error of each other in “PBM E-score of 8-mer” value: -0.131 ± 0.13 for the first, -0.0633 ± 0.048 for the second.

First: AAGAGCTT
Second: GTTTAAAC
The “PBM E-score of 8-mer” value of the first is lower: -0.291 ± 0.062 for the first, -0.0757 ± 0.07 for the second.

Compared with ACAGGACG, AATACTAC is lower in “PBM E-score of 8-mer” value: 0.0443 ± 0.025 for the first, -0.16 ± 0.02 for the second.

Compared with AGTAGACG, ACGCTATC is higher in “PBM E-score of 8-mer” value: 0.0449 ± 0.043 for the first, 0.121 ± 0.026 for the second.

Compared with GAAGTGTA, CCTCCGTC is lower in “PBM E-score of 8-mer” value: 0.304 ± 0.0081 for the first, -0.16 ± 0.014 for the second.

Going from GATTCCAA to GCGTGCCA, the “PBM E-score of 8-mer” value rises from -0.0169 ± 0.036 to 0.128 ± 0.01.

First: ATACTATC
Second: CCCAGGAC
The “PBM E-score of 8-mer” value of the first is lower: -0.298 ± 0.062 for the first, -0.106 ± 0.0028 for the second.

Going from CGTGTAAG to TATGACCA, the “PBM E-score of 8-mer” value falls from 0.134 ± 0.013 to -0.0519 ± 0.06.

Compared with GGCTAACC, GCTCGTCA is lower in “PBM E-score of 8-mer” value: 0.126 ± 0.029 for the first, 0.018 ± 0.042 for the second.

Going from AAACTAAA to ACAGCTAC, the “PBM E-score of 8-mer” value rises from -0.137 ± 0.024 to 0.108 ± 0.04.

Compared with CTAATGTA, GAAGAAAC is higher in “PBM E-score of 8-mer” value: -0.28 ± 0.021 for the first, -0.196 ± 0.0032 for the second.

Going from ATAACGCA to GTAGGTAA, the “PBM E-score of 8-mer” value falls from -0.0222 ± 0.013 to -0.128 ± 0.056.

First: TAACCACA
Second: CCGGAAAG
The “PBM E-score of 8-mer” value of the first is higher: 0.167 ± 0.053 for the first, -0.151 ± 0.038 for the second.

Compared with CATCGCTA, TGTAAACA is higher in “PBM E-score of 8-mer” value: 0.135 ± 0.048 for the first, 0.243 ± 0.039 for the second.

CGGGAAAG and ACGGTCAT are within error of each other in “PBM E-score of 8-mer” value: -0.00872 ± 0.011 for the first, 0.0584 ± 0.093 for the second.

Going from CTCTGACC to CTTCTGTC, the “PBM E-score of 8-mer” value rises from -0.241 ± 0.09 to -0.0503 ± 0.061.

ACATGTAC and CGCATTTC are within error of each other in “PBM E-score of 8-mer” value: -0.00064 ± 0.073 for the first, -0.0386 ± 0.012 for the second.

GCATACCA and ACCCCCGA are within error of each other in “PBM E-score of 8-mer” value: -0.103 ± 0.054 for the first, -0.0476 ± 0.045 for the second.

Compared with ACCCATGA, ACGGATGC is higher in “PBM E-score of 8-mer” value: -0.0657 ± 0.027 for the first, 0.00571 ± 0.0064 for the second.

First: TGGATCAA
Second: CCAAATCA
The “PBM E-score of 8-mer” value of the first is lower: -0.0374 ± 0.024 for the first, 0.12 ± 0.1 for the second.

Compared with GGACGTAA, GGGAACTA is higher in “PBM E-score of 8-mer” value: -0.209 ± 0.032 for the first, -0.00949 ± 0.0028 for the second.

First: CACGGAGC
Second: GGCTCCAA
The “PBM E-score of 8-mer” value of the first is higher: -0.000135 ± 0.075 for the first, -0.117 ± 0.034 for the second.

First: AGAGTGGC
Second: GATGAAGA
The “PBM E-score of 8-mer” value of the first is higher: 0.0326 ± 0.028 for the first, -0.0216 ± 0.014 for the second.

GAGCCCGC and ATCGCATC are within error of each other in “PBM E-score of 8-mer” value: 0.0327 ± 0.056 for the first, 0.0664 ± 0.073 for the second.

Compared with ATAGACCC, CAGTCGAC is higher in “PBM E-score of 8-mer” value: -0.277 ± 0.035 for the first, 0.00736 ± 0.014 for the second.

Compared with AGTCTGTA, TCGCGGCA is higher in “PBM E-score of 8-mer” value: -0.109 ± 0.034 for the first, 0.194 ± 0.015 for the second.

First: CCTACGGC
Second: CACGACTG
The “PBM E-score of 8-mer” value of the first is lower: -0.186 ± 0.0078 for the first, 0.0294 ± 0.028 for the second.

First: ATGCGATC
Second: CATTAATC
The “PBM E-score of 8-mer” value of the first is higher: 0.0297 ± 0.01 for the first, -0.116 ± 0.045 for the second.

Going from GGAGGTCA to AGGACCAT, the “PBM E-score of 8-mer” value falls from 0.0169 ± 0.067 to -0.341 ± 0.0014.

Compared with GATCATAA, AAACATAC is lower in “PBM E-score of 8-mer” value: -0.138 ± 0.03 for the first, -0.224 ± 0.0063 for the second.
